In all, about 13,000 compounds were measured (“IFI”: median about 4, highest 2% from about 17 on). The list shows a part of the results.
assay: GSK_TCMDC: Inhibition Frequency Index (IFI). The number of non-kinase HTS assays where a compound showed > 50 % inhibition, expressed as a percentage of the number of such assays in which the compound was tested (-0 is zero); type: functional

First: Cn1nc(-c2cccc(CNC3CCc4ccccc43)c2)c2cnc(NC3CCCC3)nc21 (centres undefined)
Second: COc1ccc(-c2ccc(CNC3Cc4ccccc4C3)cc2)cc1S(=O)(=O)NCCN1CCCC1
The IFI of the first is lower: 3.85% for the first, 5.77% for the second.

First: CC1(C)NC(N)=NC(=N)N1OCCCSc1ccccc1
Second: CC(C)(C)c1ccccc1OCCCON1C(=N)N=C(N)NC1(C)C
The IFI of the first is lower: 2.26% for the first, 6.29% for the second.

Going from `Cc1nc2c(s1)c(=O)cc(CCc1cccc(F)c1F)n2CC(=O)N(Cc1ccc(-c2ccc(C(F)(F)F)cc2)cc1)C1CCN(C(C)C)CC1` to `Cc1ccc2c(=O)cc(CCc3cccc(F)c3F)n(CC(=O)N(Cc3ccc(-c4ccc(C(F)(F)F)cc4)cc3)C3CCN(C(C)C)CC3)c2n1`, the IFI rises from 10.3% to 10.6%.

Going from `CCc1ccc(NC(=O)c2ccc(CN3CCCN(CC4CCCCC4)CC3)cc2)cc1` to `COc1cc(C(C)C)ccc1N1CCN(CCCCNC(=O)c2ccc(NC(=O)c3ccc(Cl)cc3)cc2)CC1`, the IFI falls from 10.7% to 4.31%.

First: CN1CCC(N2CCN(Cc3ccc(-c4cccc(-c5nc6cc(F)ccc6[nH]5)c4)cc3)CC2)CC1
Second: Cc1cccc2nc(-c3ccc(-c4ccc(CN5CCOCC5)cc4)cc3)[nH]c12
The IFI of the first is higher: 6.94% for the first, 4.23% for the second.

Compared with `CC[C@H](NC(=O)c1c(CC2CCN(CC(C)=O)CC2)c(-c2ccccc2)nc2ccccc12)c1ccccc1`, `NC1CCN(c2nc(NCCCc3ccc(O)cc3)nc(NCc3ccccc3-c3ccccc3)n2)CC1` is higher in IFI: 2.17% for the first, 13.6% for the second.

Compared with `CCc1ccc(C(=O)NC(=O)c2ccccc2O)cc1`, `CN(C)c1ccc(CN2CCC(NC(=O)c3ccc(-c4ccccc4F)s3)CC2)cc1` is higher in IFI: 7.28% for the first, 8.77% for the second.

Going from `Cc1ccc2c(OCCN3CCC(Cc4cc5c(cc4F)OCC(=O)N5)CC3)cc(F)cc2n1` to `COc1ccc2ncc(F)c(CCN3CCC(NCc4cc(F)c5c(c4)OCCO5)CC3)c2n1`, the IFI falls from 9.56% to 5.43%.

Compared with `CN1CCN(CCCN(Cc2csc(-c3ccc(CNCc4ccccc4)cc3)n2)S(=O)(=O)c2ccc(F)cc2)CC1`, `c1ccc(C(c2ccccc2)N2CCC(NCc3ccc(OCCCN4CCCCC4)cc3)CC2)cc1` is higher in IFI: 4.2% for the first, 10.2% for the second.

Compared with `CC(NCCc1cccc(Cl)c1)C(O)c1ccc(OCCCCCCOc2ccc(C(O)C(C)NCCc3cccc(Cl)c3)cc2)cc1` (centres undefined), `COc1cc2c(OC)cccc2cc1CNCCCCCCNCc1cc2cccc(OC)c2cc1OC` is lower in IFI: 13% for the first, 7.14% for the second.

First: Fc1cccc(Cl)c1-c1nc(NCCC(c2ccccc2)c2ccccc2)no1
Second: COc1ccc(NCCCNc2ccnc3ccccc23)cc1
The IFI of the first is lower: 1.49% for the first, 17.5% for the second.

First: Cc1cc(C(=O)NCc2ccc(-c3c(C)noc3C)cc2)n(-c2ccc(Cl)cc2)n1
Second: Cc1cc2nc(-c3ccc(/C=C/C(=O)NCc4ccc(Cl)c(Cl)c4)cc3)[nH]c2cc1C
The IFI of the first is higher: 4.23% for the first, 3.01% for the second.

Going from `COc1ccc2nccc([C@@H](O)CN3CCC(NCc4ccc(OC)c(NC=O)c4)CC3)c2c1` to `COc1ccc2nccc([C@@H](O)CN3CCC(NCc4ccc5c(n4)NC(=O)CS5)C(F)C3)c2c1` (some centres undefined), the IFI rises from 0% to 2.44%.

First: COc1ccc(Cl)cc1NC(=O)Nc1cc(C)nc2ccccc12
Second: Cc1cc(N(C)C)nc(Nc2ccc(NC(=O)c3c(F)cccc3F)cc2)n1
The IFI of the first is higher: 12.2% for the first, 2% for the second.

First: CN(C)c1ccc(-c2csc(C(=O)NCC3CCN(CC4CCCCC4)C3)c2)cc1 (centres undefined)
Second: CC(C)(C)CCN1CCC(CNC(=O)c2cc(-c3cccc(Cl)c3)cs2)C1 (centres undefined)
The IFI of the first is lower: 8% for the first, 9.8% for the second.

Going from `COc1cccc2cc(C(=O)N[C@@H](CC(C)C)C(=O)N[C@H](C=NN(C)C(=O)OC(C)(C)C)Cc3ccccc3)oc12` to `COc1cc(Cc2cnc(N)nc2N)cc(OCc2cccc(C(=O)O)c2)c1OC`, the IFI falls from 9.09% to 2.22%.

First: Cc1cccc2nc(-c3cccc(-c4ccc(NC(=O)c5ccncc5)cc4)c3)[nH]c12
Second: O=C(Nc1cccc(-c2ccc(-c3nc4cc(F)ccc4[nH]3)cc2)c1)c1ccoc1
The IFI of the first is lower: 4.42% for the first, 9.01% for the second.

First: Cc1cccc(CN2CCC(C(=O)Nc3ccc(-c4nc5ccccc5[nH]4)cc3)CC2)n1
Second: CC(C)Cn1cc(C2CCN(CCN3CCC(CNC(=O)c4ccc(-c5ccc(C#N)cc5)cc4)CC3)CC2)c2ccccc21
The IFI of the first is lower: -0% for the first, 7.34% for the second.

First: CNCc1ccc2nc(-c3coc(Cc4cc(Cl)ccc4OCC(C)C)n3)[nH]c2c1
Second: FC(F)(F)c1cc(CNCCCNc2nc3ccncc3[nH]2)ccc1Cl
The IFI of the first is higher: 12.2% for the first, 0.77% for the second.

Going from `O=c1cc(NCCCCNCc2ccc(Br)c(Br)c2)[nH]c2ccccc12` to `CCCCCCNC(=O)C1Cc2c([nH]c3ccccc23)C2(CCN(CCc3ccccc3)CC2)N1` (centres undefined), the IFI rises from 4.44% to 8.63%.

First: CC(C)CC(=O)Nc1cc(=O)[nH]c2nc(-c3ccccc3)nn12
Second: Cc1c(Cl)cccc1N=C(S)NN=Cc1ccccn1
The IFI of the first is lower: 0% for the first, 6.3% for the second.

Going from `O=C(/C=C/c1ccc(Cl)c(Cl)c1)NCCCCCN1CCC(NC(=O)NC2CCCCC2)CC1` to `O=C(Nc1ccc2c(c1)OCO2)NC1CCN(c2ccnc(Nc3ccc(F)cc3)n2)C1` (centres undefined), the IFI rises from 0.67% to 1.52%.

— ChEMBL document CHEMBL1157539, “Thousands of chemical starting points for antimalarial lead identification” (Nature, 2010)
